Results: the supplement of paper PMC12217912
Some of the results follow. The full chains were built here from the parent and the listed change. Inactive controls read about 0.05.

B1: TEV protease; numbered along this chain (parent)
chain: MGESLFKGPRDYNPISSSICHLTNESDGHTTSLYGIGFGPFIITNKHLFRRNNGTLVVQSLHGVFKVKDTTTLQQHLVDGRDMIIIRMPKDFPPFPQKLKFREPQREERICLVTTNFQTKSMSSMVSDTSCTFPSGDGIFWKHWIQTKDGQCGSPLVSTRDGFIVGIHSASNFTNTNNYFTSVPKNFMELLTNQEAQQWVSGWRLNADSVLWGGHKVFMVKPEEPFQPVKEATQL

Variants of: B1
Experiment: raw area under fraction-flipped curve 0-4 h after induction (AUC4h, not background-subtracted), DNA-recorder readout of cleavage of the substrate (dimensionless); higher = more cleavage of the substrate by the protease variant
Conditions: temperature: 34 °C; time window: 0-4 h after rhamnose induction
Procedure: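 In vivo DNA recorder in E. coli TOP10(DE3) ΔrhaA at 34 °C. Each TEVp single-site mutant (parent TEVp 0) is paired with a single-site variant of the 7-mer TEVs (canonical ENLYFQ|S). The substrate sits between flexible linkers in a Bxb1-sfGFP-TEVs-SsrA fusion, so cleavage stabilises Bxb1 and speeds flipping of a recombination array, read by NGS. The value is the raw area under the fraction-flipped curve over 0-4 h after rhamnose induction (AUC4h), with ≥20 reads per time point. It is not background-subtracted; inactive controls average about 0.047.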
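Also: Bxb1 expression induced with 0.2% (w/v) L-rhamnose at OD600 near 0.5, cultures sampled hourly, flipped fraction per protease–substrate barcode pair counted by paired-end Illumina sequencing.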

Variant	area with substrate ENAYFQS	area with substrate ENCYFQS	area with substrate ENDYFQS	area with substrate ENEYFQS	area with substrate ENFYFQS	area with substrate ENKYFQS	area with substrate ENNYFQS	area with substrate ENQYFQS	area with substrate ENRYFQS	area with substrate ENGYFQS	area with substrate ENSYFQS	area with substrate ENTYFQS	area with substrate ENVYFQS	area with substrate ENIYFQS	area with substrate ENPYFQS	area with substrate ENWYFQS	area with substrate ENYYFQS	area with substrate ENHYFQS	area with substrate ENMYFQS
MGESLFKGPRDYNPISSSICHLTNESDGHTTSLYGIGFGPFIITNKHLFRRNNGDLVVQSLHGVFKVKDTTTLQQHLVDGRDMIIIRMPKDFPPFPQKLKFREPQREERICLVTTNFQTKSMSSMVSDTSCTFPSGDGIFWKHWIQTKDGQCGSPLVSTRDGFIVGIHSASNFTNTNNYFTSVPKNFMELLTNQEAQQWVSGWRLNADSVLWGGHKVFMVKPEEPFQPVKEATQL [T55D]	0.0648	0.0545	0.0508	0.0569	0.0468	0.0453	0.0612	0.0464	0.0493	–	–	–	–	–	–	–	–	–	–
MGESLFKGPRDYNPISSSICHLTNESDGHTTSLYGIGFGPFIITNKHLFRRNNGLLVVQSLHGVFKVKDTTTLQQHLVDGRDMIIIRMPKDFPPFPQKLKFREPQREERICLVTTNFQTKSMSSMVSDTSCTFPSGDGIFWKHWIQTKDGQCGSPLVSTRDGFIVGIHSASNFTNTNNYFTSVPKNFMELLTNQEAQQWVSGWRLNADSVLWGGHKVFMVKPEEPFQPVKEATQL [T55L]	0.0528	0.0637	0.0696	0.0511	0.0562	0.0668	0.0541	–	–	0.0703	0.0588	0.0548	0.0707	–	–	–	–	–	–
MGESLFKGPRDYNPISSSICHLTNESDGHTTSLYGIGFGPFIITNKHLFRRNNGNLVVQSLHGVFKVKDTTTLQQHLVDGRDMIIIRMPKDFPPFPQKLKFREPQREERICLVTTNFQTKSMSSMVSDTSCTFPSGDGIFWKHWIQTKDGQCGSPLVSTRDGFIVGIHSASNFTNTNNYFTSVPKNFMELLTNQEAQQWVSGWRLNADSVLWGGHKVFMVKPEEPFQPVKEATQL [T55N]	0.0702	0.0466	0.062	0.0564	0.0567	0.0646	0.0705	0.0607	0.0535	–	–	–	0.0984	0.135	0.0605	0.0717	–	–	–
MGESLFKGPRDYNPISSSICHLTNESDGHTTSLYGIGFGPFIITNKHLFRRNNGTLVVDSLHGVFKVKDTTTLQQHLVDGRDMIIIRMPKDFPPFPQKLKFREPQREERICLVTTNFQTKSMSSMVSDTSCTFPSGDGIFWKHWIQTKDGQCGSPLVSTRDGFIVGIHSASNFTNTNNYFTSVPKNFMELLTNQEAQQWVSGWRLNADSVLWGGHKVFMVKPEEPFQPVKEATQL [Q59D]	0.0515	0.0687	–	–	–	–	–	–	–	–	–	–	–	–	–	–	0.051	–	–
MGESLFKGPRDYNPISSSICHLTNESDGHTTSLYGIGFGPFIITNKHLFRRNNGTLVVLSLHGVFKVKDTTTLQQHLVDGRDMIIIRMPKDFPPFPQKLKFREPQREERICLVTTNFQTKSMSSMVSDTSCTFPSGDGIFWKHWIQTKDGQCGSPLVSTRDGFIVGIHSASNFTNTNNYFTSVPKNFMELLTNQEAQQWVSGWRLNADSVLWGGHKVFMVKPEEPFQPVKEATQL [Q59L]	0.0512	0.0791	0.0547	–	–	–	–	0.0428	0.0446	–	–	–	–	–	–	0.0063	–	0.0551	–
MGESLFKGPRDYNPISSSICHLTNESDGHTTSLYGIGFGPFIITNKHLFRRNNGTLVVPSLHGVFKVKDTTTLQQHLVDGRDMIIIRMPKDFPPFPQKLKFREPQREERICLVTTNFQTKSMSSMVSDTSCTFPSGDGIFWKHWIQTKDGQCGSPLVSTRDGFIVGIHSASNFTNTNNYFTSVPKNFMELLTNQEAQQWVSGWRLNADSVLWGGHKVFMVKPEEPFQPVKEATQL [Q59P]	0.0403	0.033	0.0461	0.0388	–	0.0446	0.0449	0.0338	0.0495	0.0548	0.0503	0.0391	–	0.0442	0.0464	–	–	0.0435	0.0395
